Reference: the supplement of paper PMC9334596
Several values for one entry are separate records, joined by “and”; a condition that tells them apart may be missing. Equal values may be shown once. The full ranking holds about 5,300 compounds; the median of “PER2::LUC luminescence relative to vehicle control” is about 0.96, and the highest 2% start at about 1.3. Some of the results follow.

Test system: mPer2Luc MEF
Experiment: PER2::LUC luminescence relative to vehicle control (fold of vehicle); higher = higher PER2::LUC reporter signal
Details: 10 µM
How it was run: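 Each value gives PER2::LUC luminescence as fold of vehicle control, measured with the ONE-Glo luciferase assay system in mouse embryonic fibroblasts carrying the mPer2Luc reporter. Cells grown in DMEM with 10% FBS at 37 °C and 5% CO2 were seeded at ~3000 per well in 384-well plates. Library compounds were added at 10 μM 48 h later, and readings were taken 24 h and 30 h after treatment.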

SMILES | PER2::LUC luminescence (time after treatment 24 h) | PER2::LUC luminescence (time after treatment 30 h)
N[C@@H]1CCCN(c2c(/C=C3\SC(=O)NC3=O)cccc2-c2ccccc2)C1 | 0.806 | 0.821
CCN(CC)CCn1c(=O)c(Cc2ccc(OC)cc2)nc2ccccc21 | 0.816 | 0.894
CN(C)CCCCSC(=N)N | 0.922 | 0.973
COc1ccc2cccc(CCNC(C)=O)c2c1 | 1.02 | 1.05
C1=N/C2=N/c3ccc(OCCN4CCCC4)c(c3)COC/C=C/COCc3cccc(c3)C(=C1)N2 | 0.455 | 0.716
N=C(N)NCCC[C@@H](NC(=O)[C@@H]1CCCN1C(=O)[C@@H]1CSSCCC(=O)N[C@@H](Cc2ccc(O)cc2)C(=O)N[C@@H](Cc2ccccc2)C(=O)N[C@@H](CCC(N)=O)C(=O)N[C@@H](CC(N)=O)C(=O)N1)C(=O)NCC(N)=O | 1.06 | 0.999
CC1=C(C)C(=O)C(CCCCC#CCCCC#CCO)=C(C)C1=O | 0.959 | 1.07
CN(C)C(=O)c1ccc(S(=O)(=O)c2ccc(NC(=O)[C@@](C)(O)C(F)(F)F)c(Cl)c2)cc1 | 0.296 | 0.568
C#C[C@]1(O)CC[C@H]2[C@@H]3CCc4cc(OC)ccc4[C@H]3CC[C@@]21C | 0.993 | 1.18
CC(C)NCC(O)c1ccc(NS(C)(=O)=O)cc1 (centres undefined) | 1.06 and 1.07 | 1.03 and 0.917
CC(=O)N1CCN(c2ccc(OCC3COC(Cn4ccnc4)(c4ccc(Cl)cc4Cl)O3)cc2)CC1 (centres undefined) | 0.957 | 1.01
CN(CCOc1ccc(NS(C)(=O)=O)cc1)CCc1ccc(NS(C)(=O)=O)cc1 | 0.978 | 0.961
CNCC(O)c1ccc(O)c(O)c1 (racemic) | 1.21 | 1.2
Cc1[nH]c(/C=C2\C(=O)Nc3ccccc32)c(C)c1CCC(=O)O | 1.01 | 1.2
Cc1nc(C)c(Cl)c(O)c1Cl | 0.852 | 1.22
CC(C(=O)O[C@]12CCC[C@H](CC1)N2C)c1ccc(Br)cc1 (some centres undefined) | 0.821 | 0.934
COc1ccc(/C=C/c2cc(OC)cc(=O)o2)cc1 | 1.06 | 1.22
O=C(NO)C1(CS(=O)(=O)c2ccc(Oc3ccc(Cl)cc3)cc2)CCOCC1 | 1 | 0.895
CCN(CC)CCCC(C)Nc1c2ccc(Cl)cc2nc2ccc(OC)cc12 (centres undefined) | 0.447 and 0.203 | 0.738 and 0.426
O=C(O)P(=O)(O)O | 1.03 | 1.03
CC(C)(C)NS(=O)(=O)c1cncc(-c2cc(F)c3nc(N)nn3c2)c1 | 1.02 | 1.08

SMILES | PER2::LUC luminescence (time after treatment 24 h) | PER2::LUC luminescence (time after treatment 30 h)
CCCCCCCCCCCCCCCC[N+](C)(C)CCN(Cc1ccc(OC)cc1)c1ncccn1 | 0.289 | 0.192
C#CCN(Cc1cc2c(=O)[nH]c(C)nc2cc1Br)c1ccc(C(=O)NCc2cccnc2)cc1 | 0.902 | 0.731
Cc1ccc2c(Nc3ccc(Cl)cc3)nccc2c1Nc1ncccc1-c1ncnc2nc[nH]c12 | 0.42 | 0.349
CC(C)(C)c1ccc(S(=O)(=O)Nc2ccc(-n3ccnc3)cc2)cc1 | 1.15 | 1.26
Cc1cc(-c2nc(-c3ccc(OC(F)(F)F)cc3)no2)nn1Cc1ccnc(N2CCN(C3CC3)CC2)c1 | 0.775 | 0.735
N#CCC(C1CCCC1)n1cc(-c2ncnc3[nH]ccc23)cn1 (centres undefined) | 1.26 | 1.51
N[C@H](C(=O)O)[C@H](O)C(=O)O | 0.998 | 0.825
CN(C)CCCSc1ccccc1NC(=O)/C=C/c1ccccc1 | 1.01 | 0.871
O=C(O)CN(CCOCCOCCN(CC(=O)O)CC(=O)O)CC(=O)O | 0.947 | 0.933
CNC(=C[N+](=O)[O-])NCCSCc1ccc(CN(C)C)o1 | 0.953 and 1.09 | 1.01 and 1.09
C=CCc1ccc(O)c(-c2ccc(O)c(CC=C)c2)c1 | 1.12 | 1.04
CC(C)C[C@H](NC(=O)[C@@H](O)[C@H](N)Cc1ccccc1)C(=O)O | 1.12 and 0.518 | 1.01 and 1.14 and 0.974
COC(=O)[C@H]1[C@H]2C[C@@H]3c4[nH]c5cc(OC)ccc5c4CCN3C[C@H]2C[C@@H](OC(=O)c2cc(OC)c(OC)c(OC)c2)[C@@H]1OC | 0.745 | 0.806
COc1cc2c(cc1OC)-c1cc3ccc(OC)c(OC)c3c[n+]1CC2 | 1.01 and 1.03 | 0.946 and 0.923
C[C@H](NC(=O)Cc1cc(F)cc(F)c1)C(=O)N[C@@H]1C(=O)N(C)c2ccccc2-c2ccccc21 | 0.982 | 0.869
Cc1cc(N2CCOCC2)ccc1Nc1nc(NC2CCCCC2)c2[nH]cnc2n1 | 0.759 | 0.708
O=C(O)c1ccc(Nc2ncc3c(n2)-c2ccc(Cl)cc2C(c2c(F)cccc2F)=NC3)cc1 | 0.91 | 0.904
Nc1c2c(nc3c1CCC3)CCCC2 | 0.989 | 0.887
OCc1ccc(-c2ccc(-c3ccc(CO)s3)o2)s1 | 1.48 | 1.62
N[C@H](Cc1ccccc1)C(=O)O | 0.973 | 0.973
O=c1c(-c2ccc(O)cc2)coc2cc(O)cc(O)c12 | 1.07 | 1.06
